Test results reported in the supplement of paper PMC4723716.
Where “and” joins values, the source holds several entries; their conditions need not be identical. Equal values may be shown once. ± gives the uncertainty stated by the source. In all, about 9,900 compounds were measured (“viability index relative to DMSO control”: median about 1, lowest 2% from about 0.85 on). This is one part of the list.

Tested on: Plasmodium falciparum NF54 stage V gametocytes
Assay: viability index relative to DMSO control (fraction); higher = less gametocyte killing
Conditions: 2.5 µM, incubation time: 72 h
In short: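 P. falciparum NF54 stage V gametocytes in serum-free screening medium (0.75% gametocytemia, 1.25% hematocrit, 10 µl) were incubated with compound at 2.5 µM in 1,536-well plates for 72 hr at 37°C under low oxygen. Then 3 µl of 2.5 µM MitoTracker Red CMXRos plus 0.13% saponin was added for one to two hours. One field per well was imaged, 20–70 µm2 red particles were counted, and the viability index was the count divided by the plate mean of DMSO wells.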

[1] = library set: Broad Institute DOS

| SMILES | viability index [1] | viability index (library set: Broad Institute Blood Stage) |
| --- | --- | --- |
| O=C(NCc1cc(F)cc(F)c1)[C@H]1[C@H](CO)[C@H]2Cn3c(cccc3=O)[C@@H]1N2 | 1.01 ± 0.027 | – |
| C[C@H](CO)N1C[C@H](C)[C@@H](CN(C)C(=O)Nc2cccc3ccccc23)OCCCC[C@H](C)Oc2ccc(NC(=O)CCC(F)(F)F)cc2C1=O | 1.02 ± 0.072 | – |
| COc1ccccc1-c1ccc([C@@H]2[C@@H]3CN(C(=O)c4ccncc4)C[C@H]2N3)cc1 | 0.991 ± 0.048 | – |
| CC(C)NC(=O)NCC[C@H]1CC[C@@H](NS(=O)(=O)c2ccc(Oc3ccccc3)cc2)[C@H](CO)O1 | 1.1 ± 0.06 | – |
| COc1ccc(-c2ccc([C@@H]3[C@@H]4CN(C(=O)c5ccc(F)cc5)C[C@H]3N4)cc2)cc1 | 0.987 ± 0.082 | – |
| COc1ccccc1S(=O)(=O)N[C@H]1C=C[C@H](CC(=O)N2CCOCC2)O[C@@H]1CO | 1.12 ± 0.23 | – |
| C[C@H](CO)N1C[C@H](C)[C@@H](CN(C)S(=O)(=O)c2ccc(Cl)cc2)Oc2ccc(NS(=O)(=O)c3cccs3)cc2C1=O | 1.03 ± 0.035 | – |
| CCCNC(=O)N1CC(=O)N2[C@H](C1)[C@H](c1ccc(C#CCC3CCCC3)cc1)[C@@H]2CO | 1.02 ± 0.092 | – |
| C[C@@H]1CN([C@@H](C)CO)C(=O)c2cc(NC(=O)Nc3cccc4ccccc34)ccc2O[C@H]1CN(C)S(=O)(=O)c1cccs1 | 1.093 ± 0.0039 | – |
| CN1CCCCN2[C@H](CO)[C@H](c3ccc(-c4ccc(F)cc4)cc3)[C@H]2C1 | 1.05 ± 0.034 | – |
| CNC[C@@H]1Oc2cc(C#Cc3ccccc3OC)ccc2S(=O)(=O)N([C@H](C)CO)C[C@H]1C | 0.897 ± 0.03 | – |
| C[C@@H](NC(=O)C[C@H]1CC[C@H]2[C@H](COc3ccc(NS(=O)(=O)c4ccc(Cl)cc4)cc3C(=O)N2C)O1)c1ccccc1 | 0.984 ± 0.018 | – |
| CC(=O)N1[C@H](CO)[C@@H](c2ccccc2)[C@@H]1CN(CC(C)C)C(=O)c1ccccn1 | 0.952 ± 0.074 | – |
| CC(C)NC(=O)Nc1cccc2c1O[C@@H](CN(C)C(=O)Nc1ccccc1)[C@H](C)CN([C@H](C)CO)C2=O | 1.05 ± 0.17 | – |
| COc1ccc2c3c([nH]c2c1)[C@H](CO)N(C[C@]31CN(C)C1)C(=O)c1ccncc1 | 1.04 ± 0.046 | – |
| COCC(=O)N(C)C[C@H]1[C@H](c2ccccc2)[C@@H](CO)N1C(=O)Cc1ccncc1 | 1.02 ± 0.062 | – |
| O=C(Cc1ccncc1)N1C[C@@H]2N[C@H](C1)[C@H]2c1ccc(/C=C/c2ccccc2)cc1 | 1.07 ± 0.1 | – |
| OC[C@H]1[C@H](c2ccc(C#CC3(O)CCCC3)cc2)[C@H]2CN(Cc3cncnc3)CCCCN21 | 1.11 ± 0.036 | – |
| CCCNC(=O)Nc1ccc2c(c1)C(=O)N(C)[C@H]1CC[C@H](CC(=O)Nc3ccc4c(c3)CCCC4)O[C@@H]1CO2 | 1.05 ± 0.033 | – |
| COc1ccc2c3c([nH]c2c1)[C@H](CO)N(C)C[C@]31CCN(CC1)S(=O)(=O)c1ccc(C)cc1 | 1.04 ± 0.03 | – |
| CO[C@H]1CN(C)C(=O)c2cccc(C#N)c2OCC[C@H]2CC[C@@H](OC)[C@@H](CN(C)C(=O)[C@@H]1C)O2 | 1.08 ± 0.017 | – |
| C[C@@H]1CCCn2cc(nn2)COCCNC1=O | 0.994 ± 0.094 | – |
| Cc1nn(C)cc1NC(=O)C[C@@H]1CC[C@H]2[C@H](COc3ccc(NC(=O)c4cccc(F)c4)cc3C(=O)N2C)O1 | 1.02 ± 0.02 | – |
| CCc1cnc(N2[C@H](C#N)[C@@H](c3ccc(-c4cccc(F)c4)cc3)[C@@H]2CO)s1 | 1.12 ± 0.11 | – |

| SMILES | viability index [1] | viability index (library set: Broad Institute Blood Stage) |
| --- | --- | --- |
| CNC[C@H]1Oc2ccc(NS(=O)(=O)c3ccc(OC)cc3)cc2C(=O)N([C@H](C)CO)C[C@H]1C | 1.01 ± 0.079 | – |
| Fc1ccc(F)c(CN2[C@@H]3CNC[C@H]2[C@H]3c2ccc(-c3ccncc3)cc2)c1 | 1.13 ± 0.031 | – |
| O=C(C[C@@H]1C[C@H]2c3cc(NC(=O)C4CCOCC4)ccc3O[C@H]2[C@@H](CO)O1)NCCN1CCCCC1 | 1.09 ± 0.03 | – |
| CO[C@@H]1CN(C)C(=O)c2ccc(NC(=O)Nc3ccccc3)cc2OC[C@@H](C)N(C(=O)CC2CC2)C[C@@H]1C | 1.09 ± 0.083 | – |
| C[C@@H](NC(=O)C[C@@H]1CC[C@H]2[C@H](COc3ccc(NS(=O)(=O)c4ccc(Cl)cc4)cc3C(=O)N2C)O1)c1ccccc1 | 0.991 ± 0.048 | – |
| CO[C@@H]1CN(C)C(=O)c2cc(NC(=O)c3ccc4c(c3)OCO4)ccc2OC[C@@H](C)N(CCC(F)(F)F)C[C@H]1C | 1.13 ± 0.11 | – |
| CO[C@@H]1CN(C)C(=O)c2cc(NC(=O)C3CCOCC3)ccc2OC[C@H](C)NC[C@H]1C | 1.04 ± 0.015 | – |
| O=C(C[C@@H]1C[C@H]2c3cc(NC(=O)C4CCC4)ccc3O[C@H]2[C@@H](CO)O1)NC1CCCC1 | 1.04 ± 0.021 | – |
| COC(=O)C[C@H]1C[C@@H]2c3cc(NC(=O)C4CCOCC4)ccc3O[C@@H]2[C@@H](CO)O1 | 1.08 ± 0.066 | – |
| C[C@@H]1CCCCO[C@H](CN(C)S(=O)(=O)c2cn(C)cn2)[C@@H](C)CN([C@H](C)CO)C(=O)c2cc(N(C)C)ccc2O1 | 1.053 ± 0.01 | – |
| O=C(C[C@H]1CC[C@@H]2NC[C@H](O)COC[C@H]2O1)NCCc1ccncc1 | 1.035 ± 0.006 | – |
| COc1ccc(S(=O)(=O)Nc2ccc3c(c2)C(=O)N([C@@H](C)CO)C[C@@H](C)[C@H](CN(C)C(=O)Nc2c(C)noc2C)OCCCC[C@H](C)O3)cc1 | 1.08 ± 0.031 | – |
| COc1ccc(NC(=O)N(C)C[C@H]2OCCCC[C@@H](C)Oc3ccc(NC(=O)c4ccncc4)cc3C(=O)N([C@H](C)CO)C[C@H]2C)cc1 | 1.09 ± 0.031 | – |
| COc1cccc(C#Cc2ccc3c(c2)O[C@H](CN(C)C(=O)CN2CCOCC2)[C@@H](C)CN([C@H](C)CO)S3(=O)=O)c1 | 1.03 ± 0.013 | – |
| O=C(NC1CCC1)[C@H]1[C@H](CO)[C@H]2Cn3c(ccc(-c4ccncc4)c3=O)[C@@H]1N2Cc1cocn1 | 1.04 ± 0.018 | – |
| CN(C)C(=O)c1ccc(-c2ccc([C@@H]3[C@@H]4CN(C(=O)C5CC5)C[C@H]3N4)cc2)cc1 | 1.12 ± 0.087 | – |
| C[C@H]1CN([C@@H](C)CO)C(=O)c2cccc(NC(=O)NC3CCCCC3)c2O[C@H]1CN(C)Cc1ccc(C(F)(F)F)cc1 | 0.995 ± 0.028 | – |
| CCC(=O)N1[C@H](C#N)[C@H](c2ccccc2-c2ccccc2)[C@H]1CO | 1.07 ± 0.03 | – |
| C[C@@H]1CN([C@@H](C)CO)C(=O)c2ccccc2-c2ccccc2CO[C@@H]1CN(C)Cc1ccccc1C(F)(F)F | 0.8276 ± 0.0015 | – |
| CCCC#Cc1ccc([C@H]2[C@@H](CO)N3C(=O)CN(C(=O)Nc4cccc(F)c4)C[C@H]23)cc1 | 1.04 ± 0.043 | – |
| N#Cc1cccc(-c2ccc([C@@H]3[C@@H]4CN(C(=O)Cc5ccncc5)C[C@H]3N4)cc2)c1 | 1.04 ± 0.013 | – |
| O=C(O)C[C@H]1C[C@@H]2c3cc(NC(=O)Cc4ccncc4)ccc3O[C@@H]2[C@@H](CO)O1 | 1.09 ± 0.017 | – |
| Cc1ccc(S(=O)(=O)NCC[C@@H]2CC[C@H](NC(=O)c3cccnc3)[C@H](CO)O2)cc1 | 1.12 ± 0.061 | – |
| COc1cccc(NC(=O)Nc2ccc3c(c2)C(=O)N(C)C[C@H](OC)[C@@H](C)CN(CC2CC2)[C@H](C)CO3)c1 | 0.971 ± 0.042 | – |

| SMILES | viability index [1] | viability index (library set: Broad Institute Blood Stage) |
| --- | --- | --- |
| Cc1noc(C)c1S(=O)(=O)Nc1ccc2c(c1)CC(=O)N([C@@H](C)CO)C[C@H](C)[C@@H](CN(C)Cc1ccc(Oc3ccccc3)cc1)O2 | 1 ± 0.071 | – |
| O=C(C[C@@H]1CC[C@H]2[C@@H](COC[C@H](O)CN2S(=O)(=O)c2ccc(F)cc2)O1)NCCN1CCCCC1 | 1.08 ± 0.023 | – |
| COCC(=O)Nc1ccc2c(c1)[C@@H]1C[C@H](CC(=O)NCc3ccc4c(c3)OCO4)O[C@@H](CO)[C@@H]1O2 | 1.09 ± 0.036 | – |
| O=C(C[C@@H]1CC[C@H]2[C@@H](COC[C@H](O)CN2Cc2nccs2)O1)N1CCC(Cc2ccccc2)CC1 | 1.13 ± 0.023 | – |
| COCC(=O)N1[C@H](C#N)[C@H](c2ccccc2-c2cccc(C)c2)[C@H]1CO | 1.15 ± 0.053 | – |
| Cc1noc(C)c1NC(=O)Nc1ccc2c(c1)C(=O)N([C@@H](C)CO)C[C@@H](C)[C@H](CN(C)Cc1ccc3c(c1)OCO3)OCCCC[C@H](C)O2 | 1.17 ± 0.11 | – |
| COc1cccc(CNC(=O)C[C@H]2CC[C@H]3[C@H](COc4ccc(NS(=O)(=O)c5ccccc5F)cc4C(=O)N3C)O2)c1 | 1.1 ± 0.067 | – |
| O=C(Nc1ccc(Cl)cc1)N1[C@@H]2CNC[C@H]1[C@@H]2c1ccc(-c2ccccc2)cc1 | 1.06 ± 0.05 | – |
| CN1C(=O)c2cc(NC(=O)c3cccc(F)c3)ccc2OC[C@H]2O[C@H](CC(=O)NCC3CCCCC3)CC[C@@H]21 | 1.02 and 1.15 | – |
| O=C(c1ccccc1F)N1C[C@@H]2[C@H](c3ccccc31)[C@H](CO)N2C(=O)Nc1ccccc1 | 0.853 ± 0.022 | – |
| N#C[C@@H]1[C@H](c2ccccc2-c2ccccc2F)[C@@H](CO)N1C(=O)C1CCC1 | 1.1 ± 0.019 | – |
| COc1ccccc1-c1ccc([C@@H]2[C@@H](C#N)N(C(=O)NC3CCCCC3)[C@@H]2CO)cc1 | 1.05 ± 0.099 | – |
| O=C(C[C@H]1C[C@@H]2c3cc(NC(=O)c4ccc5c(c4)OCO5)ccc3O[C@@H]2[C@H](CO)O1)NCc1ccc(Oc2ccccc2)cc1 | 1.12 ± 0.039 | – |
| COc1ccc2c3c([C@H](CO)N(CC4CCOCC4)C[C@]33CCN(CC3)C(=O)CN(C)C)n(C)c2c1 | 1 ± 0.073 | – |
| C[C@@H]1CN([C@@H](C)CO)C(=O)c2c(c3ccccc3n2C)-c2ccccc2CO[C@H]1CN(C)C(=O)Nc1ccc2c(c1)OCO2 | 0.888 ± 0.042 | – |
| C[C@H]1CC(=O)N[C@H](c2ccccc2)C/C=C\C[C@@H](c2ccc3c(c2)OCO3)NC1=O | 1.05 ± 0.018 | – |
| CN1C(=O)c2cc(NS(=O)(=O)c3ccccc3F)ccc2OC[C@@H]2O[C@H](CC(=O)NC3Cc4ccccc4C3)CC[C@H]21 | 0.9731 ± 0.0061 | – |
| C[C@H](CO)N1C[C@H](C)[C@@H](CN(C)C(=O)c2cc(-c3ccccc3)on2)OCc2cnnn2CCCC1=O | 1.04 ± 0.061 | – |
| O=C(C1CC1)N1CC2(C1)[C@H](c1ccccc1)[C@@H](CO)N2S(=O)(=O)c1ccccc1 | 1.12 ± 0.13 | – |
| COc1ccccc1-c1ccc([C@H]2[C@H](CO)N[C@@H]2C#N)cc1 | 1.065 ± 0.0054 | – |
| NCC[C@@H]1CC[C@H](NC(=O)NC2CCCCC2)[C@H](CO)O1 | 0.992 ± 0.012 | – |
| COCc1cn([C@@H]2C[C@@H]3O[C@@H](CO)CC[C@@H]3O[C@@H]2CCc2ccc(-c3ccc(OC)cc3)cc2)nn1 | – | 0.811 ± 0.063 |
